Hit rate of the full screen: of about 340,000 compounds, about 6,900 (2%) were called active. Cut-off read from the data, not from the text of the source: active = inhibition above about 30%; inactive = below that, where a call was filed. The list shows a part of the results, in another mix than the full data. Entries without a call were filed so in the source.
biological target: D(2) dopamine receptor (Homo sapiens) (UniProt P14416); assay: HTS Assay for Allosteric Antagonists of the Human D2 Dopamine Receptor: Primary Screen for Antagonists; settings: HEK293 TREx D2 cells, calcium flux, dopamine EC80; at 10 µM; stronger effect = higher value; note: 0% is about no effect
Sequence of UniProt P14416 (P14416 whole entry, looked up): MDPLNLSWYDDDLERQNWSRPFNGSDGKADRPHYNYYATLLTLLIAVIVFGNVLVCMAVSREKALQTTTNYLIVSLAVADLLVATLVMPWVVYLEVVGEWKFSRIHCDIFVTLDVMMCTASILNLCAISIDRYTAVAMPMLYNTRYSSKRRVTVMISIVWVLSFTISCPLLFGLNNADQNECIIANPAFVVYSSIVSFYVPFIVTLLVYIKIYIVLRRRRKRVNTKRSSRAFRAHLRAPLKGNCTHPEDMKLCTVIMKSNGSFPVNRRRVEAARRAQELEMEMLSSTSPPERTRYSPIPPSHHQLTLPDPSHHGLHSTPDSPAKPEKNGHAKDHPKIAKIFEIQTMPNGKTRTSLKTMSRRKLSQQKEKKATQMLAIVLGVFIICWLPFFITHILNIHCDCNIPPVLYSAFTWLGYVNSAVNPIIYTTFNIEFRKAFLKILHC
In short: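 Overnight-induced (tetracycline, 30 C) HEK293 T-REx cells carrying force-coupled D2 receive a no-wash calcium dye, then compound, then EC80 dopamine at 180 s; signals are read kinetically throughout.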

Compared with `Oc1ccccc1Nc1nc(-c2ccccc2)c2cc(Cl)ccc2n1`, `Cc1[nH]n2c(=O)cc(-c3ccccc3Cl)nc2c1-c1ccccc1` is lower in inhibition: -11.3% for the first, -16.5% for the second.

Compared with `O=C(CSc1nc2nccnc2c(=O)n1CCc1c[nH]c2ccccc12)Nc1ccccc1F`, `CCN(C(=O)CSc1nc2ccccc2n1CC(=O)Nc1cccc(C#N)c1)c1ccccc1` is higher in inhibition: -9.95% for the first, 17.3% for the second.

Going from `Cc1cccc(OCCCC(=O)Nc2sc3c(c2C(N)=O)CCC(C)C3)c1` (centres undefined) to `COC(=O)c1ccc(Cl)cc1NC(=O)N1CC=C(c2c[nH]c3ccccc23)CC1`, the inhibition falls from 7.39% to -4.91%.

First: COc1ccc2c(CNCC(C)c3ccccc3)c(C(=O)O)n(Cc3ccc(F)cc3Cl)c2c1 (centres undefined)
Second: COc1ccc(OC)c(NC2=C(c3ccccc3)C(=O)c3ccccc32)c1
The inhibition of the first is higher: -0.535% for the first, -4.18% for the second.

First: O=C1CS(=O)(=O)C2(C(=O)N(Cc3cccc(F)c3)c3ccccc32)N1c1ccccc1 (centres undefined)
Second: CC(=O)C1=C(OC(=O)C(C)C)c2ccccc2S(=O)(=O)N1Cc1ccccc1
The inhibition of the first is higher: 3.04% for the first, -4.74% for the second.

Going from `COc1ccc(/C=C(\C#N)c2nc(-c3cc(Cl)ccc3OC)cs2)cc1` to `COc1ccc(C(CC(=O)Nc2ccc(F)c(Cl)c2)N2Cc3ccccc3C2=O)cc1OC` (centres undefined), the inhibition rises from 8.03% to 19.6%.

Going from `CC1CCN(S(=O)(=O)c2ccc3c(c2)N(CC(=O)NCc2ccccc2)C(=O)CO3)CC1` to `O=C1Cc2cc(S(=O)(=O)N3CCN(c4ccccc4)CC3)ccc2N1`, the inhibition falls from 18.6% to 7.72%.

First: O=C(Cn1ncc2c(=O)oc3ccccc3c21)Nc1cc(F)ccc1F
Second: Cn1nc(C(=O)Nc2cc(F)ccc2F)c2c1-c1ccccc1SC2
The inhibition of the first is lower: -1.07% for the first, 10.1% for the second.

First: COc1ccc(N2CCN(C(=O)c3cc4c(-c5ccccc5F)nn(C)c4s3)CC2)cc1
Second: COc1ccc(-c2nn(CC(=O)NC3CCCC3)c3c2cnc2ccc(F)cc23)cc1
The inhibition of the first is lower: 4.23% for the first, 17% for the second.

First: O=C(CCC(=O)N1Cc2ccccc2Oc2ncccc21)Nc1ccc(Cl)cc1
Second: Cc1ccccc1CNC(=O)c1ccc(NC(=O)c2nsc3ccccc23)cc1
The inhibition of the first is higher: -1.22% for the first, -19.6% for the second.

First: CCOc1ccccc1-n1ccnc(NCc2ccc(F)cc2)c1=O
Second: Cc1ccc(CNC(=O)CC2Oc3ccccc3NC2=O)cc1 (centres undefined)
The inhibition of the first is lower: 4.46% for the first, 15.1% for the second.

Going from `Cc1cccc(NC(=O)Nc2nnc(N(C)C3CCCCC3)s2)c1C` to `O=C(NCCCc1nc2ccccc2n1Cc1ccccc1Cl)C1CCCCC1`, the inhibition falls from 10.2% to 6.83%.

Going from `Cc1nn(CC(=O)NCc2ccco2)c(=O)c2cc3ccccc3n12` to `Cc1cc(NC(=O)CN2C(=O)C(C)(C)c3ccccc32)ccc1Br`, the inhibition falls from 6.45% to -27.2%.

Compared with `CCc1ccccc1N(C)C(=O)c1cn(CC(C)C)c(=O)c2cc(OC)c(OC)cc12`, `COc1cc(C(=O)N(Cc2ccc(C(C)C)cc2)C2CCS(=O)(=O)C2)cc(OC)c1OC` (centres undefined) is higher in inhibition: -19.7% for the first, -9.84% for the second.

Going from `O=C(Cn1c(=O)oc2cc(S(=O)(=O)N3CCCCCC3)ccc21)Nc1cccc(C(F)(F)F)c1` to `Cc1ccc(-c2nc(C(=O)NCc3ccc(Cl)cc3)c3n2CCCCC3)cc1`, the inhibition rises from -7.68% to 13.7%.

First: Cc1ccc(N2CC3=C(C2=O)C(c2ccc(Br)cc2)NC(=O)N3C)cc1 (centres undefined)
Second: CCOc1ccc(CCNC(=O)c2ccc3c(c2)c(C)c(C)n3C)cc1
The inhibition of the first is lower: -11.8% for the first, -2.69% for the second.

Compared with `CCOC(=O)C1CCCN(C(=O)Cn2ncc3c([nH]c4ccccc43)c2=O)C1` (centres undefined), `CCOC(=O)c1cnn(-c2ccc(OC)cc2)c1C1CCN(C(=O)OC(C)(C)C)CC1` is higher in inhibition: 2.56% for the first, 11.4% for the second.

First: CCC(=O)N1CCc2cc(Br)cc(S(=O)(=O)NCCc3ccc(OC)c(OC)c3)c21
Second: COc1cc(NC(=O)c2nnn(Cc3ccc(F)cc3)c2N)cc(OC)c1
The inhibition of the first is lower: -18% for the first, -17.2% for the second.

Compared with `CCn1c(SCc2ccccc2)nnc1-c1nonc1NC(C)=O`, `Cc1ccccc1C(=O)N1CCC(c2nc3ccccc3s2)CC1` is higher in inhibition: -17% for the first, -13% for the second.

With `CSc1nc2sc3c(c2c(=O)n1-c1ccc(C)c(Cl)c1)CCN(C(C)=O)C3` the inhibition was -4.35%.

`FC(F)(F)c1cccc(N2CCN(Cc3ccoc3)CC2)c1` was tested, and the inhibition was active: 103%.
`Cc1[nH]n2c(=O)c3c(nc2c1-c1ccc(F)cc1)CCCC3` was tested, and the inhibition was active: 35.6%.
With `COc1ccc(/C=N/Nc2nnc(-c3ncc[nH]3)c3ccccc23)cc1` the inhibition was active: 47.4%.
`C=CCn1c(Oc2cc(C)ccc2C)nc2c1c(=O)n(C)c(=O)n2C` was tested, and the inhibition was active: 30%.
In the case of `Cc1cc[n+](CC(=O)N2CCCc3ccccc32)cc1`, the inhibition is reported as active: 38.8%.
`O=C1c2ccccc2C(=O)N1CCc1nc2ccccc2c(=O)n1Cc1ccco1` was tested, and the inhibition was active: 40.4%.
`CCOc1ccccc1OCCNC1CCCC1` was tested, and the inhibition was active: 61.8%.
For `Cc1nn(C)c(C)c1/C=N/NC(=O)CCn1cc([N+](=O)[O-])cn1`, the inhibition was active: 32%.
`CCCn1c(SCC(=O)NNC(=O)c2ccccc2)nnc1-c1cccnc1` was tested, and the inhibition was active: 31.5%.
`COc1ccc(NC(=O)c2cc(-c3ccccc3OC)on2)cc1` was tested, and the inhibition was active: 32.5%.
